Data reported in US20210403583A1 (ELIXIRON IMMUNOTHERAPEUTICS HONG KONG, published 2021).

T1: cynomolgus CSF1R expressed on 293F cells (cynomolgus monkey, UniProt P07333 20-972 (human entry))
T1 construct: also called cynoCSF1R
T1 chain: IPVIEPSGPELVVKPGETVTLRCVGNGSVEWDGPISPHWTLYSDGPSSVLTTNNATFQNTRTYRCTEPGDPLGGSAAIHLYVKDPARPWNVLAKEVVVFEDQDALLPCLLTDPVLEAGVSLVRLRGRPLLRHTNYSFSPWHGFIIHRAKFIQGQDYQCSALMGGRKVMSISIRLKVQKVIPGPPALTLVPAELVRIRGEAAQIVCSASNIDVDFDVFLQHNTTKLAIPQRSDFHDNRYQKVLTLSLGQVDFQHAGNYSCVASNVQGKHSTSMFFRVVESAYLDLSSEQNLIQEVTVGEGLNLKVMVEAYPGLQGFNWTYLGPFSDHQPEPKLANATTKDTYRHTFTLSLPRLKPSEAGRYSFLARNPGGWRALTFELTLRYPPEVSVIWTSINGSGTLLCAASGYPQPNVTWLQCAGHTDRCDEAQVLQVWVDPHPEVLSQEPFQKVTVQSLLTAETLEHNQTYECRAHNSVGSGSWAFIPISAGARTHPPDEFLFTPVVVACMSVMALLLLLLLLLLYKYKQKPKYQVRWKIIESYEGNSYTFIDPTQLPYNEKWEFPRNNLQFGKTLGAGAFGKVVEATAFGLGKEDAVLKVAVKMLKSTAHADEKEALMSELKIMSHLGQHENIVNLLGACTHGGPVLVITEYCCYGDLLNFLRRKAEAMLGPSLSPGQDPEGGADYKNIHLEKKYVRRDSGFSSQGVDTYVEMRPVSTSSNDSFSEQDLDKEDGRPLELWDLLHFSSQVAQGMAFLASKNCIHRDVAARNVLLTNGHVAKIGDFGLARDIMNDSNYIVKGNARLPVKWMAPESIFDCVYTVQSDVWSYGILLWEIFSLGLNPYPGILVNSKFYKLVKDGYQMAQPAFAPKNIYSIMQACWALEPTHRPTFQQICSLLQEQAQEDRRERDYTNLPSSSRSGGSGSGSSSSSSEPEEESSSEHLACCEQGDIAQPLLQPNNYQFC

T2: recombinant human IL-10Ra fusion protein (R&D Systems) (human, UniProt Q13651 22-235)
T2 sequence (looked up): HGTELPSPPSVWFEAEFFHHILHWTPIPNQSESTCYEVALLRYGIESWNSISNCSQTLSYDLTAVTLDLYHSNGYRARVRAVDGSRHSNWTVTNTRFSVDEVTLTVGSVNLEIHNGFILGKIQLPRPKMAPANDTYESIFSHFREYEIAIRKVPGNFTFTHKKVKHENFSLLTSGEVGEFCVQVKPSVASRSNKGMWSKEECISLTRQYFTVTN


Key:
[1] = biological target: T3, recombinant human CSF1R-His (Biolegend) (human, UniProt P07333 partial chain, limits assumed); test: BLI (Octet RED96), antibody captured on AHC biosensor, CSF1R-His in solution, 1:1 model
T3 construct: Bought protein; also called CSF1R-His (monomer); hu-CSF1R; not shown: His tag
Description: Kinetic rate constants, ka and kd, for binding of 6D4 and 6M6 to CSF1R were measured by Bio-Layer Interferometry (BLI) (ForteBio Octet RED96). The BLI assay was performed using AHC (Anti-hIgG Fc Capture) biosensors (ForteBio) to capture each anti-CSF1R antibody (2 μg/mL) to acquire a 0.5 nm shift and then the biosensors were dipped into varying concentrations (i.e. 0, 0.549, 1.65, 4.94, 14.8, 44.4, 133.3 and 400 nM) of recombinant CSF1R-His protein in running buffer containing PBS-Tween 20 (0.1%), BSA (0.1%). Rate constants were calculated by curve fitting analyses (1:1 Langmuir model) of binding response with a 5-minute association and 15-minute dissociation interaction time.

[2] = biological target: T4, human CSF1R expressed on cells (293F/huCSF1R stable cells; AML5 cells; human monocytes and macrophages) (human, UniProt P07333 20-972); test: cell-based or functional assay
[3] = biological target: T4, human CSF1R expressed on cells …; test: cell-based or functional assay; remark: listed apart in the source
[4] = biological target: T1, cynomolgus CSF1R expressed on 293F cells; test: flow cytometry on 293F cells expressing cynomolgus CSF1R
Description: Materials and methods: The gene segments encoding full-length human CSF1R amino acid sequence of SEQ ID NO: 70 or the cynomolgus CSF1R amino acid sequence of SEQ ID NO: 71 were obtained using Thermo gene synthesis service and cloned in a mammalian expression vector pCDNA3.4. […] After washing with FACS buffer (2%FBS in PBS), the cells were stained with anti-human IgG—Alexa Fluor 647 and analyzed by Attune NxT Flow Cytometer (Thermo Scientific).

[5] = biological target: T4, human CSF1R expressed on cells …; test: cell-based or functional assay; remark: listed apart in the source
[6] = biological target: T4, human CSF1R expressed on cells …; test: cell-based or functional assay; remark: listed apart in the source
[7] = biological target: T5, recombinant human CSF1R-Fc fusion protein (human, UniProt P07333 partial chain); test: ELISA, coated human CSF1R-Fc (dimer)
T5 construct: probably the same protein; also called CSF1R-Fc (dimer); not shown: Fc part
Description: (§1) Materials and methods: Recombinant human CSF1R-His (Biolegend), or CSF1R-Fc fusion protein, were immobilized on 96 well microtiter plate at a concentration of 1 μg/mL in Coating Solution (SeraCare) overnight at 4° C. The wells were washed with wash solution (0.05% Tween20 in imidazole-buffered saline) and blocked with 1% BSA. Serial dilutions of the antibodies were added to wells. After incubation at 3TC for 1 h, the wells were washed with wash solution. Peroxidase-conjugated goat anti-human kappa light chain antibody (Bethyl) was applied to each well at 3TC for 1 h incubation. After washing, the wells were developed with TMB substrate for 5-10 min at RT and then stopped with 1 N HCl. Thereafter absorbance was measured at 450 nm and 650 nm. The EC50 values were calculated through GraphPad Prism7.

[8] = biological target: T3, recombinant human CSF1R-His (Biolegend); test: ELISA, coated human CSF1R-His (monomer)
Description: as §1

[9] = biological target: T2, recombinant human IL-10Ra fusion …; test: ELISA, coated human IL-10Ra fusion protein
Description: Materials and methods: Recombinant human IL-10Ra fusion protein (R&D Systems) were immobilized on 96 well microtiter plate at a concentration of 1 μg/ml in Coating Solution (SeraCare) overnight at 4° C. The wells were washed with wash solution (0.05% Tween20 in imidazole-buffered saline) and blocked with 1% BSA. Serial dilutions of Ab/IL-10 fusion proteins were added to wells. After incubation at 37° C. for lhr, the wells were washed with wash solution. Peroxidase-conjugated goat anti-human kappa light chain antibody (Bethyl) was applied to each well at 37° C. for 1 hr incubation. After washing, the wells were developed with TMB substrate for 5-10 min at RT and then stopped with 1 N HCl. Thereafter absorbance was measured at 450 nm and 650 nm. The EC50 value was calculated through GraphPad Prism7.

[10] = biological target: T5, recombinant human CSF1R-Fc fusion …; test: ELISA, coated human CSF1R-Fc
Description: Materials and methods: Recombinant human CSF1R-Fc, or mouse CSF1R-Fc (Sino Biological) were immobilized on 96 well microtiter plate at a concentration of 1 μg/mL in Coating Solution (SeraCare) overnight at 4° C. The wells were washed with wash solution (0.05% Tween20 in imidazole-buffered saline) and blocked with 1% BSA. Serial dilutions of the anti-CSF1R/IL-10 fusion proteins were added to wells. After incubation at 3TC for 1 h, the wells were washed with wash solution. To detect chimeric Ab/IL10 fusions, peroxidase-conjugated goat anti-human kappa light chain antibody (Bethyl) was applied to each well at 3TC for 1 h incubation. To detect AB98 or AB98/1110 fusions, peroxidase-conjugated Goat anti-mouse IgG Fab antibody (Jackson immunoresearch) was applied to each well at 3TC for 1 h incubation. After washing, the wells were developed with TMB substrate for 5-10 min at RT and then stopped with 1 N HCl. Thereafter absorbance was measured at 450 nm and 650 nm.

T3 sequence (P07333 20-512 limits assumed): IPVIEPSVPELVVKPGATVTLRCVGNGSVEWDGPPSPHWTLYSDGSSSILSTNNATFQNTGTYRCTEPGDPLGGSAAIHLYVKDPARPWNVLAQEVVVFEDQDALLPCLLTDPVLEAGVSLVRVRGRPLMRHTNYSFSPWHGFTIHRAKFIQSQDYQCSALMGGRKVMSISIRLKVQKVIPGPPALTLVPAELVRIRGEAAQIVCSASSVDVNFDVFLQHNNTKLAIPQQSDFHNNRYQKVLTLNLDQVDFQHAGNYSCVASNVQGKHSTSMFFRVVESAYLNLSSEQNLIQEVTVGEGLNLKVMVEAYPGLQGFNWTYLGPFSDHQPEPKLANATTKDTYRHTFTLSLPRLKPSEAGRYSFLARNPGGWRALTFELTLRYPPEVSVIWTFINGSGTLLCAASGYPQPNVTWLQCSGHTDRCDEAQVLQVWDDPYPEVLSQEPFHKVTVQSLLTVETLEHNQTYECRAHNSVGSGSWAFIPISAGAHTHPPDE

koff [1] [s⁻¹] | kon [1] [M⁻¹ s⁻¹] | IC50 (M), CSF1-dependent AML5 cell proliferation [2] [M] | IC50 (M), IL-34-dependent AML5 cell proliferation [2] [M] | binding result [4] | IC50 (M), CSF1-dependent AML5 cell proliferation [5] [M] | EC50 [7] [nM] | EC50 [8] [nM] | EC50 [9] [nM] | EC50 [10] [nM] | Binder | IC50 (M), inhibition of CD14+ monocyte survival (CSF1-dependent) [3] [M] | IC50 (M), CSF1-dependent survival of CD14+ monocytes [6] [M] | IC50 (M), CSF1-dependent survival of macrophages [6] [M]
0.000223 | 688000 | 2.73e-10 | 2.01e-10 | binds | 2.73e-10 | 0.0653 | 0.112 |  |  | chimeric anti-CSF1R antibody 6M6 (antibody, human IgG1, kappa) heavy: DVQLQQSGTVLARPGASVKMSCKASGYTFTSYWIHWVKQRPGQGLEWIGAIYPGNRDTNYNQKFKGKAKLTTVTSASTAYMELSSLTNEDSAVYYCTGAFAGYYDWYFDVWGAGTTVTVSS[letters of human IgG1 constant region left out] light: DIVLTQSPASLAVSLGQRATISCKASQGVDYAGDSYMNWYQQKPGQPPKLLIYVASDLDSGIPARFSGSGSGTNFTLNIHPVEEEDAATYYCQQSYEDPRTFGGGTTLEIQRTVAAPSVFIFPPSDEQLKSGTASVVCLLNNFYPREAKVQWKVDNALQSGNSQESVTEQDSKDSTYSLSSTLTLSKADYEKHKVYACEVTHQGLSSPVTKSFNRGEC | 2.24e-10 | 1.44e-10 | 7.2e-11
 |  |  |  |  |  |  |  | 9.36 | 0.232 | chimeric anti-CSF1R/IL10 fusion protein 6M6/(IL10)2 (antibody, human IgG1, kappa, Antibody-cytokine fusion: two human IL10 in tandem fused by linkers to the C-terminus of the heavy chain) heavy: DVQLQQSGTVLARPGASVKMSCKASGYTFTSYWIHWVKQRPGQGLEWIGAIYPGNRDTNYNQKFKGKAKLTTVTSASTAYMELSSLTNEDSAVYYCTGAFAGYYDWYFDVWGAGTTVTVSS[letters of human IgG1 constant region left out]LGGGGSGGGGSGGGGSPGQGTQSENSCTHFPGNLPNMLRDLRDAFSRVKTFFQMKDQLDNLLLKESLLEDFKGYLGCQALSEMIQFYLEEVMPQAENQDPDIKAHVNSLGENLKTLRLRLRRCHRFLPCENKSKAVEQVKNAFNKLQEKGIYKAMSEFDIFINYIEAYMTMKIRNGGGGSGGGGSGGGGSPGQGTQSENSCTHFPGNLPNMLRDLRDAFSRVKTFFQMKDQLDNLLLKESLLEDFKGYLGCQALSEMIQFYLEEVMPQAENQDPDIKAHVNSLGENLKTLRLRLRRCHRFLPCENKSKAVEQVKNAFNKLQEKGIYKAMSEFDIFINYIEAYMTMKIRN light: DIVLTQSPASLAVSLGQRATISCKASQGVDYAGDSYMNWYQQKPGQPPKLLIYVASDLDSGIPARFSGSGSGTNFTLNIHPVEEEDAATYYCQQSYEDPRTFGGGTTLEIQRTVAAPSVFIFPPSDEQLKSGTASVVCLLNNFYPREAKVQWKVDNALQSGNSQESVTEQDSKDSTYSLSSTLTLSKADYEKHKVYACEVTHQGLSSPVTKSFNRGEC |  |  | 

Read-outs that look alike come from different tables or passages of the source.
